Screen size: about 310,000 compounds; about 2,200 (0.71%) showed an effect of 50% or more. The effect is printed as a negative number. The list shows a part of the results.
What follows are compounds tested against human ether-à-go-go-related gene (hERG) potassium channel (human, UniProt Q12809) (assay: primary screen, population patch clamp on CHO cells stably expressing hERG).
Sequence of human ether-à-go-go-related gene (hERG) potassium channel (Q12809 whole entry, looked up): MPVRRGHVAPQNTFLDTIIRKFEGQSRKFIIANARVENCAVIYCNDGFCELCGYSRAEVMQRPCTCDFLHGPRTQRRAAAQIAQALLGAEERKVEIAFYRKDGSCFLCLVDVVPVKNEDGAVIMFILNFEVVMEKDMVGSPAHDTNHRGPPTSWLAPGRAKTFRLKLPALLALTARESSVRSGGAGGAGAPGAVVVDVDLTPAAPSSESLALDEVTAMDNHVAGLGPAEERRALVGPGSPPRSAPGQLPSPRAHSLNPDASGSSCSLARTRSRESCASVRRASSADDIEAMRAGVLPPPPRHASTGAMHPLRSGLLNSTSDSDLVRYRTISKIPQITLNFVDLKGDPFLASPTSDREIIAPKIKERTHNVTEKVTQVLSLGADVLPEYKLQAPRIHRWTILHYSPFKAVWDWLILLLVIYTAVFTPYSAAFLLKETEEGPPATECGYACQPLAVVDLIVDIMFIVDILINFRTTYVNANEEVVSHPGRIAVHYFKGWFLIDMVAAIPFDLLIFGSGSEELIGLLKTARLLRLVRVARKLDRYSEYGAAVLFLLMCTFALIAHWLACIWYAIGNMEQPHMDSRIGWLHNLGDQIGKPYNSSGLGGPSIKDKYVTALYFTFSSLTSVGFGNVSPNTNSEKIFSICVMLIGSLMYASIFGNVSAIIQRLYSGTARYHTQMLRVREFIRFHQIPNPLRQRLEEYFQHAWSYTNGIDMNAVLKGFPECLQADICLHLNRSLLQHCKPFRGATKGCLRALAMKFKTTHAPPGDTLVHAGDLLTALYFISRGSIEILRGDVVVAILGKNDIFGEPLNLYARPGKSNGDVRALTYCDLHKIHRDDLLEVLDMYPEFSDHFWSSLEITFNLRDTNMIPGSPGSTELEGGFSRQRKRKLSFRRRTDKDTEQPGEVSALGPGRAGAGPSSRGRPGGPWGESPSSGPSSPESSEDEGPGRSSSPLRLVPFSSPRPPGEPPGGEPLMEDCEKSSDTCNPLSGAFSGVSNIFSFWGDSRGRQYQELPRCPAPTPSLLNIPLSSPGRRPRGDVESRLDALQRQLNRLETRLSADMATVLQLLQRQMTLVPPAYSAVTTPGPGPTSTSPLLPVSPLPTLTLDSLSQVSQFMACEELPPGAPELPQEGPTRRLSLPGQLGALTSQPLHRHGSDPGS

Structure (SMILES) | hERG current change (%, negative = inhibition) at 1uM [%]
O=S(=O)(NCC1CCCO1)c1ccc(NS(=O)(=O)c2ccc(F)cc2)cc1 (stereo not drawn) | 13.2
COCCNc1nc2nonc2nc1NC(C)c1ccccc1Cl (stereo not drawn) | 10.5
CC(C)[C@H](NC(=O)[C@@H]1CSCN1C(=O)OC(C)(C)C)C(=O)NCC1CCC(C(=O)O)CC1 (stereo partly drawn) | 8.41
Cn1c(=O)[nH]c(=O)c2c1nc(Br)n2CC(O)COCc1ccccc1 (stereo not drawn) | 14.2
CCc1nnc(NC(=O)CSc2nc(-c3ccccc3)c(-c3ccccc3)o2)s1 | 8.46
Cn1cnnc1SCC(=O)Nc1c(F)cc(F)cc1Br | 9.87
COc1ccccc1N1C(=O)C2C3C=CC(C3)C2(C)C1=O (stereo not drawn) | 5.25
Cc1ccccc1NC(=O)Cc1nc(COC(=O)c2ccc(C(F)(F)F)cc2)cs1 | 16.5
CCOc1ncccc1C(=O)NCc1ccc(C)cc1 | 3.44
CCc1ccccc1NC(=O)C(CC)Sc1nc2cc3c(cc2c(=O)n1Cc1ccco1)OCO3 (stereo not drawn) | 10.5
CC1(C)C(=O)OC(c2cccn2-c2cccc([N+](=O)[O-])c2)C2(CCCCC2)C1=O (stereo not drawn) | 0.105
Cn1c(N2CCN(C(c3ccccc3)c3ccccc3)CC2)nc2ccccc21 | -13.3
CCOc1ccc(-c2nnn(CC(=O)Nc3ccccc3OC)n2)cc1OCC | 7.12
COCCCNC(=O)CNC(=S)N(Cc1ccc(F)cc1)C1CCCCC1 | -2.58
Cc1ccc(S(=O)(=O)N2CCCOC2CNC(=O)C(=O)NCCN2CCOCC2)cc1 (stereo not drawn) | 8.3
CCCC1Cc2c(sc(NC(=S)NC(=O)c3ccccc3)c2C#N)CO1 (stereo not drawn) | 8.23
Cc1ccccc1CCN1CCCC(CN(C)C(=O)c2ccc3ncccc3c2)C1 (stereo not drawn) | -4.16
CCCCCOC(=O)Cn1c(=O)oc2ccccc21 | 8
Cc1cccc(NC(=O)CSc2nc3ccccc3nc2N2CCCC2)c1 | 7.16
Cc1ccc(S(=O)(=O)N2CCC(C(=O)NNS(=O)(=O)c3ccc(Cl)cc3)CC2)cc1 | 10.1
Cc1ccccc1CC1(CO)CCCN(C(=O)c2cccc(Cl)c2)C1 (stereo not drawn) | 7.03
COC(=O)/C(=C/c1c[nH]c2ccccc12)[N+](=O)[O-] | 11.6
CCc1nc(SCC(=O)OC)c2c3c(sc2n1)COC(C)(C)C3 | 16.1

Structure (SMILES) | hERG current change (%, negative = inhibition) at 1uM [%]
Cc1oc(-c2ccccc2)[n+]([O-])c1C.Cl | 9.06
CCCn1c(SCc2nc3sc(C)c(C)c3c(=O)[nH]2)nc2ccccc2c1=O | 7.16
O=c1[nH]cc(NCCNc2ncc(C(F)(F)F)cc2Cl)c(=O)[nH]1 | 5.9
COc1ccc(C(=O)Nc2ccccc2N2CCN(C(=O)c3ccccc3)CC2)cc1Br | 13.3
CCC(=O)N1CCc2cc(S(=O)(=O)NCCc3ccc(S(N)(=O)=O)cc3)ccc21 | 22.4
CCCN(Cc1cc2ccc(C)cc2[nH]c1=O)C(=O)c1cccnc1 | 0.816
CCN(CC)S(=O)(=O)c1cc(NC(=O)COC(=O)c2c(C)noc2C)ccc1C | 0.523
CCCn1c(SCC(=O)Nc2nc(C)cs2)nnc1-c1cccnc1 | -12.8
Cc1ccc(NC(=O)Cn2ccsc2=N)c([N+](=O)[O-])c1.Cl | 58.8
CCOC(=O)c1cn(Cc2ccccc2)nn1 | 8.02
Cc1ccc(O)c(-c2cc(C(=O)Nc3c(C)n(C)n(-c4ccccc4)c3=O)[nH]n2)c1 | 4.61
COc1ccc(S(=O)(=O)Nc2cc(C)c(O)c(S(=O)(=O)c3ccccc3)c2)cc1 | 5.94
CC(=O)NCC(=O)N1CCCC(C(=O)c2ccc(Oc3ccccc3)cc2)C1 (stereo not drawn) | -0.0494
CCOC(=O)c1c(NC(=O)CSc2nnc(-c3c[nH]c4ccccc34)n2C)sc2c1CCCC2 | 9.41
O=C(CSc1nc(-c2ccccc2)nc2c1Cc1ccccc1O2)Nc1ccccc1 | 4.64
CC(C)CCn1nnnc1CN1CCN(c2ccccc2)CC1 | 5.07
CCOC1CCc2c(C)nc(N)nc2S1 (stereo not drawn) | 13.3
CCNc1nc(NCC)nc(C(=O)Nc2ccccc2)n1 | -6.29
O=S(=O)(c1ccccc1)N1CCC(O)(CSc2ccc(Cl)cc2)CC1 | 12.1
CCCCC(=O)NC(=S)NNC(=O)CC#N | 5.04
CC(=O)C1=C(C)NC(SCC(N)=O)=C(C#N)C1C (stereo not drawn) | 14.9
CN(C)c1ccc(C(CNS(=O)(=O)c2ccc3ccccc3c2)c2c[nH]c3ccccc23)cc1 (stereo not drawn) | 13.4

Source: publication PMC4336329 (PLoS ONE, 2015)
